# Measured values: PubChem BioAssay AID686979 (National Center for Advancing Translational Sciences (NCATS), 2013)
# Where “and” joins values, the source holds several entries; their conditions need not be identical. Equal values may be shown once. Hit rate of the full screen: of about 420,000 compounds, about 50,000 (12%) were called active. The shares of active, inactive and inconclusive entries below differ from those in the screen. The call rests on the fitted dose curve; in most records, active means well fitted inhibition curve with a large enough effect; inconclusive means small, poorly fitted or top-dose-only effect; inactive means flat fitted curve, though single readings scatter. A potency beside an inconclusive call is a rough fit, not a confirmed value.
# Test: qHTS for Inhibitors of human tyrosyl-DNA phosphodiesterase 1 (TDP1): qHTS in cells in presence of CPT; further: nearly all actives have a fitted effect of over 55% in size
# Details: chicken DT40 Tdp1-/-;hTDP1 cells + 20 nM CPT, ATP luminescence, 48 h; activity change, negative = growth inhibition: at 46.2 µM (top of the series)
# Procedure, shortened: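 Chicken DT40 Tdp1-/- cells stably complemented with human TDP1 were seeded at 400 cells/well in medium containing 20 nM camptothecin, exposed to pin-transferred compounds, and grown at 37 °C for at least 48 hr. Viability was read as ATP luminescence.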
# On the % scale 0 is the no-effect control and ±100 the full control effect; potency means the concentration at half of the fitted maximal effect; tags describe the fitted curve by direction and shape.
Structure (SMILES),Potency,"activity change, negative = growth inhibition"
O=C1C2CC3N1CCC31c3ccccc3-n3c1c2ccc3=O (stereo not drawn),"inconclusive: 16.4 µM [inhibitor, single point]",–
CCCCN(CCO)c1ncnc2sc(-c3ccccc3)cc12,"inconclusive: 23.1 µM [inhibitor, partial curve, poor fit]",–
Cc1ccc(-c2nn(-c3cc(N4CCNCC4)ccc3[N+](=O)[O-])c(=O)c3ccccc23)cc1,active: 3.66 µM,–
O=C(COC(=O)c1ccc2c(c1)OCO2)Nc1cccc(F)c1,inactive,–
CC1CCN(c2ccc3c(c2)S(=O)(=O)c2cccc(C(=O)NCc4ccc(F)cc4)c2C3=O)CC1,"inconclusive: 18.4 µM [inhibitor, single point]",–
Cc1cc(C)cc(NC(=O)COC(=O)CCn2c(C)csc2=O)c1,inactive,–
O=C(NCc1cccnc1)NC(=O)c1ccc(Cl)cc1,"inconclusive: 25.9 µM [inhibitor, single point]",–
COc1ccc(NC(=O)CN2CCN(CC(=O)Nc3ccccc3F)CC2)c(OC)c1,active: 23.1 µM,–
Cc1ccc(-n2ncc(C(=O)NCCN3CCc4ccccc4C3)c2C2CCN(C(=O)OC(C)(C)C)CC2)cc1C,active: 16.4 µM,–
O=C(C#Cc1ccccc1)Nc1cccc(F)c1,active: 4.11 µM,–
FC(F)(F)c1cnc(C(c2ccccn2)c2ncn[nH]2)c(Cl)c1 (stereo not drawn),"inconclusive: 29.1 µM [inhibitor, single point]",–
COc1ccc(S(=O)(=O)N=C2C=C(C)C(=O)C(C)=C2)cc1,active: 14.6 µM,–
Nc1nnc(SCC(=O)NCCOc2ccccc2)s1,–,inconclusive: -30.5% [inhibitor]
Cc1cccc(C)c1NC(=O)CN1CCN(CCCC(c2ccc(F)cc2)c2ccc(F)cc2)CC1,active: 7.31 µM,–
C#CC1(NC(=O)NCCCC)CCCCC1,inactive,–
Cc1nc(N=Nc2cc(S(=O)(=O)O)c3cc([N+](=O)[O-])cc(S(=O)(=O)O)c3c2)c(COP(=O)(O)O)c(C=O)c1O,"inconclusive: 23.1 µM [inhibitor, single point]",–
COc1ccc(NC(=O)c2ccc3c(=O)n4c(nc3c2)CCCCC4)cc1,"inconclusive: 29.1 µM [inhibitor, single point]",–
O=C(NCc1ccc2c(c1)OCO2)c1c(O)nc2sccn2c1=O,"inconclusive: 23.1 µM [inhibitor, single point]",–
O=C(NCCCN1CCCC1)[C@H](CSCc1ccccc1)N1Cc2ccccc2C1=O,"inconclusive: 29.1 µM [inhibitor, single point]",–
CCSCCOC(=O)C1=C(C)N(C)C(=O)NC1c1cc(OC)ccc1OC (stereo not drawn),"inconclusive: 23.1 µM [inhibitor, single point]",–
COc1ccc(S(=O)(=O)c2c(Nc3cccc(C)c3C)sc(C(=O)c3ccccc3)c2N)cc1,active: 2.91 µM,–
CC(C)CNS(=O)(=O)c1ccc(CCC(=O)Nc2cc(Cl)ccc2Oc2ccccc2)cc1,"inconclusive: 29.1 µM [inhibitor, single point]",–
Cc1ccc(Nc2nc(-c3ccncc3)cs2)cc1,"inconclusive: 16.4 µM [inhibitor, partial curve]",–
CC(C)N(CCCNC(=O)C1CCC(CNS(=O)(=O)c2ccccc2)CC1)Cc1ccccc1 (stereo not drawn),"inconclusive: 20.6 µM [inhibitor, single point]",–
COc1cccc(-c2nc3c(c(SCC(=O)N4CCOCC4)n2)Cc2c(CO)cnc(C)c2O3)c1,active: 20.6 µM,–

Structure (SMILES),Potency,"activity change, negative = growth inhibition"
COC(=O)c1ccc(NC(=O)CSc2cn(CC(=O)N3CCCCC3)c3ccccc23)cc1,active: 20.6 µM,–
CCOC(=O)N1CCC(NC(=O)C2CCCN(S(C)(=O)=O)C2)CC1 (stereo not drawn),inactive,–
CCc1ccc(CN(C)CC(=O)Nc2ccc3c(c2)CCC3)cc1,"inconclusive: 29.1 µM [inhibitor, single point]",–
COc1ccccc1NC(=O)Nc1sccc1-c1nc2ccccc2s1,"inconclusive: 18.4 µM [inhibitor, single point]",–
C[C@@H](C(=O)OCC(=O)c1ccccc1)N1C(=O)C2CCCCC2C1=O (stereo partly drawn),inactive,–
Cc1cc(C)c(C(=O)CSc2nnc(N)s2)cc1C,"inconclusive: 29.1 µM [inhibitor, single point]",–
CCC(CO)Oc1cc(NC(=O)c2cccc([N+](=O)[O-])c2)c2ncn(C(C)C)c2c1 (stereo not drawn),"inconclusive: 29.1 µM [inhibitor, single point]",–
O=C(N/N=C/c1c[nH]c2ccccc12)c1sc2ccccc2c1Cl,inactive,–
CCOC(=O)c1c(C)oc2nc(C)nc(NCCc3ccc(OCC)c(OCC)c3)c12,"inconclusive: 25.9 µM [inhibitor, single point]",–
Cc1ccc(NC(=O)CN(C)C(C)C(=O)N2CC(C)CC(C)C2)cc1 (stereo not drawn),"inconclusive: 20.6 µM [inhibitor, single point]",–
S=C1N(c2ccccc2)C(c2ccccc2)N2CCCN12 (stereo not drawn),inactive,–
CC(=O)N1CCC(N(CCN2CCOCC2)C(=S)Nc2ccc(C)cc2C)CC1,inactive,–
Cc1cc2nc(-c3nnnn3-c3c(C)cccc3C)c(=O)[nH]c2cc1C,"inconclusive: 29.1 µM [inhibitor, single point]",–
CC1(C)Cc2c(c(N3CCCC3)nc3sc4c(N5CCNCC5)ncnc4c23)CO1,"inconclusive: 23.1 µM [inhibitor, single point]",–
CCNc1nc(NCC)nc(N/N=C/c2ccc([N+](=O)[O-])o2)n1,active: 16.4 µM,–
COc1ccc(OCC(=O)OCC(=O)NCC2CCCCC2)cc1,inactive,–
O=C(Nc1ccc(O)c(-c2nc3ccccc3o2)c1)C1(c2ccc(Cl)cc2)CCCC1,"inconclusive: 10.3 µM [inhibitor, partial curve]",–
O=C(CSc1nnc(COc2ccccc2)o1)NC1CC2CCC1C2 (stereo not drawn),inactive,–
COc1ccc(CC(=O)Nc2ccc(S(=O)(=O)N3CCCC3)cc2)c(OC)c1,inactive,–
Cc1cc(C)n(-c2ccc(C(=O)OCC(=O)Nc3ccccc3F)cc2)n1,inactive,–
CCCN(C(=O)c1cn(C)c(=O)c2cc(OC)c(OC)cc12)c1ccc(CC)cc1,"inconclusive: 20.6 µM [inhibitor, single point]",–
O=C(NCC1CCCO1)C(c1cccs1)N(Cc1ccccc1)C(=O)c1ccc(-c2ccccc2)[nH]1 (stereo not drawn),"inconclusive: 29.1 µM [inhibitor, single point]",–
COc1ccc(NC(=O)C2=CC(c3ccco3)=NS(=O)(=O)N2C)cc1OC,inactive,–
CCc1ccccc1NC(=O)CCCSc1nc(-c2ccco2)cc(C(F)(F)F)n1,inactive,–
Nc1ncnc2c1ncn2[C@@H]1O[C@H](CNCc2cn(CC(=O)NC3CC3)c3ccccc23)[C@@H](O)[C@H]1O,inactive,–

Structure (SMILES),Potency,"activity change, negative = growth inhibition"
COc1ccc(CCN2C(=O)COc3ccccc3C2C(=O)NCc2ccccc2)cc1OC (stereo not drawn),inactive,–
Cc1ccc(S(=O)(=O)Nc2cc(Cl)ccc2-n2cncn2)cc1,inactive,–
CC(C)CCn1nnnc1C(c1ccccc1)N1CCN(C)CC1 (stereo not drawn),inactive,–
CCOCCc1nn2c(=O)cc(COC(=O)c3ccc(NC(=O)C4CCCCC4)cc3)nc2s1,"inconclusive: 25.9 µM [inhibitor, single point]",–
CCNCCCNCCCCNCCCNCC,active: 3.76 µM,–
O=c1c2sccc2nc(SCc2cc(=O)n3cc(Cl)ccc3n2)n1-c1ccc(F)cc1,"inconclusive: 25.9 µM [inhibitor, single point]",–
COc1cc(C)c(Cc2cnc(N)nc2N)cc1OC,"inconclusive: 31.6 µM [inhibitor, single point] and inconclusive: 33.5 µM [inhibitor, single point]",–
OC(CNC1CCCCC1)CNC1CCCCC1,"inconclusive: 29.1 µM [inhibitor, single point]",–
O=C(Cc1cccc(NC(=O)C2CCCN(C(=O)C3CCC3)C2)c1)Nc1cccc(C(=O)N2CCOCC2)c1 (stereo not drawn),inactive,–
Cc1ccc(N(CC(=O)NC2CCC(C)CC2)S(=O)(=O)c2cccnc2)cc1 (stereo not drawn),"inconclusive: 29.1 µM [inhibitor, single point]",–
O=C(Nc1ccc(Cl)cc1)C1CCC(CNS(=O)(=O)c2ccc(Br)s2)CC1 (stereo not drawn),"inconclusive: 18.4 µM [inhibitor, single point]",–
Cc1cc(C)c2c(NC(=O)CCl)nn(C)c2n1,active: 13 µM,–
COc1ccccc1CNc1nc2ccc(C)cc2n2nnnc12,inactive,–
C=CCn1c(=O)c2ccc(C(=O)NCc3ccccc3)cc2n(Cc2ccc(Cl)cc2)c1=O,"inconclusive: 11.6 µM [inhibitor, single point]",–
Cc1ccc(C2=N/C(=C/N3CCOCC3)C(=O)O2)cc1,inactive,–
Cc1ccc(Cl)cc1N1CCN(Cc2nc3c(c(=O)[nH]c(=O)n3C)n2CCc2ccccc2)CC1,active: 16.4 µM,–
CCN(CC)CCN(Cc1cc2cc3c(cc2[nH]c1=O)OCCO3)C(=S)NC,"inconclusive: 7.31 µM [inhibitor, partial curve, poor fit]",–
CCOCCCN1C(=O)CN(C2CCCCC2)C(=O)C1c1ccc(OC)c(OC)c1 (stereo not drawn),inactive,–
CC1=C(C(=O)Nc2ccccc2Cl)C(c2cccc(O)c2)n2ncnc2N1 (stereo not drawn),inactive,–
CC(C(=O)Nc1cccc([N+](=O)[O-])c1)N1CCN(C/C=C/c2ccccc2)CC1 (stereo not drawn),"inconclusive: 23.1 µM [inhibitor, single point]",–
N#Cc1cccc(NC(=O)c2cc(C3CCCCN3C(=O)c3cccs3)on2)c1 (stereo not drawn),"inconclusive: 18.4 µM [inhibitor, single point]",–
O=C(Nc1nc(-c2cccs2)c(-c2cccs2)s1)C1CCCC1,active: 16.4 µM,–
Cc1ccccc1-c1nc(CN2CCC(C(=O)NCCCN3CC(C)CC(C)C3)CC2)c(C)o1 (stereo not drawn),active: 23.1 µM,–
